Assay results taken from the antibiotic and cytotoxicity screens of Wong et al. (2023).
The other results are listed elsewhere or left out.

Key:
[1] = test system: HSkMC (human skeletal muscle cells); assay: cytotoxicity call (relative viability < 0.9); conditions: 10 µM
[2] = test system: HepG2; assay: cytotoxicity call (relative viability < 0.9); conditions: 10 µM
[3] = test system: S. aureus RN4220; assay: growth inhibition call (relative growth <= 0.2); conditions: 50 µM

CN1C(=O)c2cc(NC(=O)Nc3ccccc3F)ccc2OC[C@@H]2O[C@H](CC(=O)NCc3ccc(-c4ccccc4)cc3)CC[C@H]21
inactive: cytotoxicity call [1] | cytotoxicity call [2] | growth inhibition call [3]

C[C@@H]1CN([C@@H](C)CO)C(=O)Cc2cc(NC(=O)c3ccncc3)ccc2O[C@@H]1CN(C)C(=O)NC1CCCCC1
inactive: cytotoxicity call [1] | cytotoxicity call [2] | growth inhibition call [3]

C[C@H](CO)N1C[C@H](C)[C@H](CN(C)C(=O)Cc2ccccc2)OCCCC[C@H](C)Oc2ccc(NC(=O)CCC(F)(F)F)cc2C1=O
inactive: cytotoxicity call [1] | cytotoxicity call [2] | growth inhibition call [3]

C[C@@H]1CN([C@@H](C)CO)C(=O)Cc2cc(NC(=O)c3ccncc3)ccc2O[C@H]1CN(C)S(=O)(=O)c1ccccc1
inactive: cytotoxicity call [1] | cytotoxicity call [2] | growth inhibition call [3]

Cc1c(C(=O)O)sc2[nH]cnc(=O)c12
inactive: cytotoxicity call [1] | cytotoxicity call [2] | growth inhibition call [3]

O=C(CCCCCNC(=O)OCCCCO[C@H]1C[C@@H](c2coc3ccccc3c2=O)C=C(C(=O)N2CCOCC2)O1)NO
inactive: cytotoxicity call [1] | cytotoxicity call [2] | growth inhibition call [3]

Cc1ccc(S(=O)(=O)Nc2ccc3c(c2)C(=O)N([C@@H](C)CO)C[C@@H](C)[C@H](CN(C)Cc2ccc(Cl)c(Cl)c2)O3)cc1
inactive: cytotoxicity call [1] | cytotoxicity call [2] | growth inhibition call [3]

C[C@@H]1CCCCO[C@@H](CN(C)Cc2ccc(C(F)(F)F)cc2)[C@H](C)CN([C@H](C)CO)C(=O)c2cc(NC(=O)C3CCCCC3)ccc2O1
inactive: cytotoxicity call [1] | cytotoxicity call [2] | growth inhibition call [3]

CCCCOc1ccc(OCCCN2CCOCC2)cc1.Cl
inactive: cytotoxicity call [1] | cytotoxicity call [2] | growth inhibition call [3]

CC(C)(Sc1cc(C(C)(C)C)c(O)c(C(C)(C)C)c1)Sc1cc(C(C)(C)C)c(O)c(C(C)(C)C)c1
inactive: cytotoxicity call [1] | cytotoxicity call [2] | growth inhibition call [3]

c1coc(CNc2ncnc3[nH]cnc23)c1
inactive: cytotoxicity call [1] | cytotoxicity call [2] | growth inhibition call [3]

CCOC(=O)c1ccc(NC(=O)N[C@H]2O[C@@H](CO)[C@@H](O)[C@@H](O)[C@@H]2O)cc1
inactive: cytotoxicity call [1] | cytotoxicity call [2] | growth inhibition call [3]

CN(C)Cc1nc(=O)c2ccccc2[nH]1
inactive: cytotoxicity call [1] | cytotoxicity call [2] | growth inhibition call [3]

C[C@@H]1CN([C@@H](C)CO)C(=O)c2cc(NC(=O)Nc3ccccc3)ccc2O[C@@H](C)CCCCO[C@@H]1CN(C)C(=O)Nc1cccc2ccccc12
inactive: cytotoxicity call [1] | cytotoxicity call [2] | growth inhibition call [3]

CC(C)NC(=O)Nc1ccc2c(c1)C(=O)N([C@H](C)CO)C[C@H](C)[C@H](CN(C)S(=O)(=O)c1cn(C)cn1)OCCCC[C@@H](C)O2
inactive: cytotoxicity call [1] | cytotoxicity call [2] | growth inhibition call [3]

Cc1noc(C)c1S(=O)(=O)Nc1ccc2c(c1)C(=O)N([C@@H](C)CO)C[C@@H](C)[C@H](CN(C)Cc1ccc(Cl)c(Cl)c1)OCCCC[C@@H](C)O2
inactive: cytotoxicity call [1] | cytotoxicity call [2] | growth inhibition call [3]

C[C@H]1CN([C@@H](C)CO)C(=O)c2cc(-c3ccc(C#N)cc3)cnc2O[C@H]1CN(C)C(=O)Nc1ccc(C(F)(F)F)cc1
inactive: cytotoxicity call [1] | cytotoxicity call [2] | growth inhibition call [3]

Cc1ccc(S(=O)(=O)NC(=O)NN2CCCCCC2)cc1
inactive: cytotoxicity call [1] | cytotoxicity call [2] | growth inhibition call [3]

C=CCN1C(=O)[C@]2(O[C@H](CCn3cc([C@H](O)c4ccccc4)nn3)[C@@H]([Si](C)(C)c3ccc(OC)cc3)[C@@H]2C)c2ccccc21
inactive: cytotoxicity call [1] | cytotoxicity call [2] | growth inhibition call [3]

CSCC[C@H](NC(=O)[C@@H](N)Cc1c[nH]c2ccccc12)C(=O)N[C@@H](CC(=O)O)C(=O)N[C@@H](Cc1ccccc1)C(N)=O
inactive: cytotoxicity call [1] | cytotoxicity call [2] | growth inhibition call [3]

N[C@H](Cc1cnc[nH]1)C(=O)O
inactive: cytotoxicity call [1] | cytotoxicity call [2] | growth inhibition call [3]

Cn1cnc(S(=O)(=O)N2C[C@H](O)COC[C@H]3O[C@@H](CC(=O)NCc4ccc(F)cc4)CC[C@@H]32)c1
inactive: cytotoxicity call [1] | cytotoxicity call [2] | growth inhibition call [3]

C[C@@H]1CN([C@@H](C)CO)C(=O)Cc2cc(NC(=O)Cc3ccccc3)ccc2O[C@H]1CN(C)Cc1ccc(-c2ccccc2)cc1
inactive: cytotoxicity call [1] | cytotoxicity call [2] | growth inhibition call [3]

C[C@@H]1CN([C@@H](C)CO)C(=O)c2cc(N(C)C)ccc2O[C@@H](C)CCCCO[C@@H]1CN(C)C(=O)Nc1cccc2ccccc12
inactive: cytotoxicity call [1] | cytotoxicity call [2] | growth inhibition call [3]

Cc1noc(C)c1S(=O)(=O)N(C)C[C@@H]1Oc2ccc(NC(=O)Cc3cn(C)c4ccccc34)cc2CC(=O)N([C@@H](C)CO)C[C@H]1C
inactive: cytotoxicity call [1] | cytotoxicity call [2] | growth inhibition call [3]

C[C@@H]1CN([C@@H](C)CO)C(=O)c2cccc(NC(=O)c3ccncc3)c2O[C@@H]1CN(C)Cc1ccc2c(c1)OCO2
inactive: cytotoxicity call [1] | cytotoxicity call [2] | growth inhibition call [3]

NCCCC[C@@H]1NC(=O)[C@H](CCC(=O)O)NC(=O)c2cc([N+](=O)[O-])ccc2OCC[C@@H](C(=O)NCC(=O)O)NC1=O
inactive: cytotoxicity call [1] | cytotoxicity call [2] | growth inhibition call [3]

COc1ccc(NC(=O)Nc2ccc3c(c2)C(=O)N([C@@H](C)CO)C[C@H](C)[C@@H](CN(C)S(=O)(=O)c2ccc(Cl)cc2)OCCCC[C@H](C)O3)cc1
inactive: cytotoxicity call [1] | cytotoxicity call [2] | growth inhibition call [3]

Cc1c2occ(C(C)(C)C)c2cc2c3c(c(=O)oc12)CCCC3
inactive: cytotoxicity call [1] | cytotoxicity call [2] | growth inhibition call [3]

Nc1[nH]ncc1Cl
inactive: cytotoxicity call [1] | cytotoxicity call [2] | growth inhibition call [3]

C#CCCCCCCCCCCCC(O)CC(O)COC(C)=O.C=CCCCCCCCCCCCC(O)CC(O)COC(C)=O (stereo unspecified)
inactive: cytotoxicity call [1] | cytotoxicity call [2] | growth inhibition call [3]

CS(=O)(=O)c1nnc(N)s1
inactive: cytotoxicity call [1] | cytotoxicity call [2] | growth inhibition call [3]
